# Reference: paper PMC6919601, “Identification of Plasmodium dipeptidyl aminopeptidase allosteric inhibitors by high throughput screening” (PLoS ONE, 2019)
# In all, about 110,000 compounds went through this assay and about 230 (0.21%) showed an effect of 50% or more. This is one part of the list.
# Target: DPAP1 (Plasmodium falciparum, UniProt Q8IIJ9)
# Experiment: primary screen, percent inhibition; read by cleavage of a fluorogenic dipeptide substrate; higher = more effect of the substance
# Set-up: species or system P. falciparum D10 trophozoite lysates; single well
# 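Also: 30 min substrate incubation versus DMSO and 10 µM JCP410 controls.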
# Chain of DPAP1 (Q8IIJ9 whole entry, looked up): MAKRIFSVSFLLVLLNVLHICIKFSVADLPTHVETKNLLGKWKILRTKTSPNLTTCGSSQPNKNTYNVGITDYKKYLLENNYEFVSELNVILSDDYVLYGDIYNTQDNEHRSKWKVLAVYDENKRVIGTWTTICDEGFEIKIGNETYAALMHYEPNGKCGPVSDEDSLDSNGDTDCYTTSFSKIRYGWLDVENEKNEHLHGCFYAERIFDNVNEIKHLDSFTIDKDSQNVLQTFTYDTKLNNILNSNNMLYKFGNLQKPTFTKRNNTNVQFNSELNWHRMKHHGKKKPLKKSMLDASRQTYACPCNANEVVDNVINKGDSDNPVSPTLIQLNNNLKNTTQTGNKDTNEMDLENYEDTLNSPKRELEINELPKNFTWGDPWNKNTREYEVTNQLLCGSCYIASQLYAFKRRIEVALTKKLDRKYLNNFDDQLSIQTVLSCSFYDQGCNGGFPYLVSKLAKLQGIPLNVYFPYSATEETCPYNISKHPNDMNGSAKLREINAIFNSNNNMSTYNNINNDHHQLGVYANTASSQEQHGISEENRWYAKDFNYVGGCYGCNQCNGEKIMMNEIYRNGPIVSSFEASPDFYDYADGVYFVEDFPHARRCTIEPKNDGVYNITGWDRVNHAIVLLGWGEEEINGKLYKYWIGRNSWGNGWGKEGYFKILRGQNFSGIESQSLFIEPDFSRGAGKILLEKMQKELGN
row,Compound,% Inhibition @ 10 uM [%]
1,Cc1ccc(S(=O)(=O)N(CC(=O)N2CCC(C)CC2)c2ccc(C)c(C)c2)cc1,-1.41
2,CCNCCNC(=O)c1c(O)nc2ccccc2c1O,1.86
3,CCn1cc(/C=C(/C#N)C(=O)Nc2ccc(Cl)cc2)c2ccccc21,0.392
4,Cc1cc(NS(=O)(=O)c2ccc(NC(=O)c3ccc(C(C)(C)C)cc3)cc2)no1,1.83
5,CCSc1nc2ccc(C)cc2cc1C#N,0.851
6,O=C(CN1C(=O)c2ccccc2S1(=O)=O)Nc1ccccc1C(F)(F)F,5.07
7,OC1CCCN(Cc2c(Cl)cccc2Cl)C1 (stereo not drawn),1.88
8,CCOc1ccc(-n2c(C)nc3cc(C(=O)NCc4ccco4)ccc32)cc1,-0.458
9,COc1ccc(Cn2ccc3nc(C)c(C(=O)N4CCN(c5ccccn5)CC4)cc3c2=O)cc1,-3.22
10,O=C(COc1ccc2ccccc2c1)NC12CC3CC(CC(C3)C1)C2,-0.28
11,C=CCNC(=O)c1cc(-c2ccc(OC)c(OC)c2)on1,-2.47
12,COCCNC(=O)C1CCCN(c2ncnc3onc(C)c23)C1 (stereo not drawn),2.86
13,COc1ccc(-c2cs/c(=N\CCO)n2-c2ccccc2)cc1,-1.32
14,C=CCOc1ccc(C(=O)N(Cc2ccc(C)cc2)Cc2ccco2)cc1,6.01
15,Nc1nonc1-c1noc(-c2ccc(COc3cc(Cl)ccc3Cl)cc2)n1,5.09
16,CCOc1ccc2c(C)c(C(=O)O)oc2c1OCC,-4.61
17,CC1=CC(C)(C)N(CN2C(=O)c3ccccc3C2=O)c2cc(C)ccc21,-4.21
18,CC1CCN(S(=O)(=O)c2nnc(NC(=O)COc3ccccc3F)s2)CC1,-3.74
19,OCCN(CCc1ccccc1)Cc1ccccc1,-7.93
20,CCC(C)NC(=O)COCc1cc(-c2ccco2)on1 (stereo not drawn),-9.49
21,Cc1oc(-c2cccs2)[n+]([O-])c1C,-3.18
22,CCN1CCN(c2nc3c(c(=O)n(C)c(=O)n3C)n2Cc2cc(OC)ccc2Cl)CC1,0.248
23,CC(=O)c1ccccc1OCCCN1CCN(C)CC1,-4.02
24,CCOC(=O)N1CCN(C(=O)Cn2cnc3c(nnn3-c3ccc(C)cc3)c2=O)CC1,-0.431
25,COc1ccc(N2C(N)=C(C#N)C(c3ccc4c(c3)OCO4)C3=C2CC(C)(C)CC3=O)c(OC)c1 (stereo not drawn),2.69
26,CCOC(=O)c1c(N)sc2c1CCN(C(=O)OCC)C2,-1.66

row,Compound,% Inhibition @ 10 uM [%]
1,COc1ccccc1/C(O)=C/c1nc2ccc(Cl)cc2nc1O,-3.41
2,CC(C)c1ccc(NC(=O)CN(CCc2ccccc2)S(C)(=O)=O)cc1,1.88
3,c1ccc(CCc2nc(-c3cccnc3)no2)cc1,0.884
4,CC1=C(C(=O)Nc2ccccc2)C(c2cccs2)C(C#N)=C(SCC(=O)Nc2ccccc2)N1 (stereo not drawn),0.76
5,COc1ccc2c(c1)c(=O)oc1c(C)c(OC(C(=O)O)c3ccccc3)ccc12 (stereo not drawn),36.4
6,Nc1n[nH]c(SCC(=O)Nc2nsc(-c3ccc(Cl)cc3)n2)n1,-2.75
7,CCOc1ccc(-c2cc(C(=O)OC)on2)cc1,17.4
8,Clc1ccc2c(c1)C(C1=NCCN1)c1ccccc1CS2 (stereo not drawn),4.44
9,O=C(Nc1cccc(NC(=O)C2CC2)n1)C1CC1,3.26
10,COc1ccccc1-c1cc(C(F)(F)F)nc(S(=O)(=O)CCCC(=O)ON=C2CCCCC2)n1,12.3
11,CC(C)(C)c1ccc(S(=O)(=O)N2CCN(CCC#N)CC2)cc1,1.62
12,Cc1cc(C)c(S(=O)(=O)/N=C2/C=C(Br)C(=O)c3ccccc32)c(C)c1,3.54
13,Fc1c(F)c(F)c2nc3onc(-c4ccccc4)c3cc2c1F,-1.61
14,Cc1sc(NC(=O)c2ccccc2)c(CN2CCN(CCO)CC2)c1C,-4.66
15,Cc1cccc(NC(=O)Nc2sc3c(c2C(N)=O)CCCC3)c1,-2.82
16,Cc1cnc(-c2ccc(C(=O)O)cc2)nc1,-6.44
17,Cc1ccn2cc(-c3ccccc3)cc2c1,1.72
18,CCC(NC(=O)COc1ccccc1Cl)c1ccccc1 (stereo not drawn),0.161
19,CCS(=O)(=O)c1cc([N+](=O)[O-])c(Sc2ccccc2N)s1,6.43
20,CCOC(=O)c1cnc2c(OC)cccc2c1NCCC1=CCCCC1,15.5
21,COc1cc(OC)cc(C(=O)Nc2cccc(Oc3ccc(C(=O)O)c(C(=O)O)c3)c2)c1,-4.52
22,COc1ccc(-c2cc(C(F)(F)F)nc(SCC(=O)NCc3cn(C)nc3C)n2)cc1OC,4.64
23,Cc1c(CCC(=O)NCc2ccccc2Cl)c(=O)oc2c(C)c(O)ccc12,4.13
24,CC(=O)OC[C@@H](C#N)NC(=O)[C@H](CC(C)C)NC(=O)c1cccc(Oc2ccccc2)c1,1.71
25,Brc1ccc(-c2nc3c(c(N4CCOCC4)n2)CCCC3)cc1,-9.26
26,O=C(NCCOc1ccc2ccccc2c1)c1cccnc1,2.57

row,Compound,% Inhibition @ 10 uM [%]
1,O=C(c1cc2c(s1)-c1ccccc1S(=O)(=O)C2)N1CCC(Cc2ccccc2)CC1,-2.39
2,N#Cc1cccc(NC(=O)c2cccc(C(F)(F)F)c2)c1,5.08
3,COc1ccc(C)cc1NC(=O)CN(c1ccccc1C)S(=O)(=O)c1ccccc1,-10.5
4,O=C1NC(=O)/C(=C\c2cccs2)N1,-1.48
5,Cc1ccc2c(c1Br)C1(C(=O)N2)C(C#N)=C(N)Oc2[nH]nc(-c3ccc4c(c3)OCO4)c21 (stereo not drawn),2.32
6,Cc1[nH]c2ccccc2c1SCCNC(=O)C12CC3CC(CC(C3)C1)C2,4.69
7,Nc1c(C(=O)O)sc2nc(-c3ccccc3)cc(-c3ccccc3)c12,10.8
8,CC1=C(C(=O)OCCCc2ccccc2)C(c2ccccc2F)CC(=O)N1 (stereo not drawn),3.87
9,Cc1ccc(S(=O)(=O)NCC(=O)N2CCOCC2)cc1,-3.41
10,O=c1c(NCc2ccccc2Cl)c(-c2ccc3c(c2)CCCC3)c1=O,2.94
11,Cc1ccccc1CNS(=O)(=O)c1cc(C(=O)O)ccc1F,-2.5
12,COc1ccc(CCNC(=O)c2cc3sc(Cl)cc3n2C)cc1OC,-4.85
13,COC(=O)CN(C)CP(C)(=O)OC(C)C (stereo not drawn),-5.23
14,CC1CCN(CCC(=O)c2ccc(O)cc2)CC1,-3.74
15,O=C(NC(c1ccccc1)c1ccccc1)c1cccs1,1.83
16,COc1ccc2c(C)c(C(=O)OCCN(C)C)oc2c1,3.34
17,O=C(NCCCN1CCCCC1)c1cc(-c2ccc(Cl)s2)nc2ccccc12,-4.06
18,NC(=O)COc1ccccc1OCC(N)=O,-1.29
19,O=C1CCC(c2ccccc2)=NN1Cc1c(F)cccc1Cl,-2.72
20,O=C(NCc1cccc(C(F)(F)F)c1)C1CCN(c2ncccn2)CC1,-2.71
21,CCCOc1ccc(C2C(C(=O)OC)=CN(C(C)C)C=C2C(=O)OC)cc1,-5.05
22,COCCCN1C(=O)c2[nH]nc(-c3ccccc3O)c2C1c1ccc(C(C)(C)C)cc1 (stereo not drawn),2.02
23,O=C(Cn1c(=O)c2cccn2c2cccnc21)NCCN1CCCC1,-4.76
24,Cc1cccc2oc(Cc3nc4c(C)cccc4o3)nc12,-3.25
25,O=C1NC23CCCCC2C(/C1=C(O)\C=C\c1ccc(Cl)cc1)c1ccccc1O3 (stereo not drawn),0.907
26,CCOc1ccccc1N1CCN(C(=O)c2ccc(Br)cc2)CC1,1.83

row,Compound,% Inhibition @ 10 uM [%]
1,O=C(CS(=O)(=O)Cc1ccccc1)Nc1ccc(S(=O)(=O)Nc2nccs2)cc1,-1.06
2,COc1cc(CNCc2ccncc2)ccc1OCC(N)=O,0.032
3,CCN(C(=O)COc1ccccc1)c1nnc(-c2ccc(Cl)cc2)s1,-1.81
4,COCCNC(=O)c1ccc(Cn2c(SCc3cccc(OC)c3)nc3ccncc32)cc1,-3.34
5,C=CCNC(=O)C1CCN(c2cnccn2)CC1,0.758
6,Cc1ccccc1C(=O)Nc1ccccc1-n1cccc1,-10.1
7,Cc1ccc(S(=O)(=O)N2CCCC(C(=O)O)C2)cc1 (stereo not drawn),-2.37
8,Cc1cc(Cl)ccc1OCc1nc(-c2ccc(OCC(N)=O)cc2)no1,-6.23
9,CCOC(=O)c1c(S(=O)(=O)N2CCC(Cc3ccccc3)CC2)c(C)n(C)c1C,-3.37
10,CC1CCN(C(=O)CCn2ccc3cc(S(=O)(=O)N4CCCCC4)ccc32)CC1,4.16
11,N#CCNC(=O)[C@H](CC1CC1)NC(=O)OCc1ccccc1,-1.83
12,Cc1nc(O)c(C(=O)/C=C/c2ccccc2F)c2c1CCCC2,-0.833
13,CCOc1ccc(-n2nnc(-c3nc(-c4ccc(C)cc4)no3)c2N)cc1,7.62
14,O=C(O)c1cnc2ccc([N+](=O)[O-])cc2c1O,-0.591
15,O=C(Cn1ncc2ccccc21)N1CCC2(CC1)OCCO2,3.29
16,COc1ccc(Br)cc1C1=N/C(=C\c2ccc3c(c2)OCO3)C(=O)O1,4.38
17,COc1ccc2c(c1)CC/C(=C\c1ccc(N(C)C)cc1)C2=O,2.72
18,O=C(NCCCCCCNC(=O)c1cncc(O)c1)c1cncc(O)c1,8.74
19,O=C(NCc1nc2ccccc2[nH]1)c1ccccn1,-1.24
20,CCc1ccc(-n2c(C)cc(/C=C3\NC(=O)NC3=O)c2C)cc1,4.83
21,C=CCNC(=S)Nc1ccc(Cl)c(Cl)c1,15.2
22,Cc1ccccc1NS(=O)(=O)c1cccc(S(=O)(=O)c2cccc(S(=O)(=O)Nc3ccccc3C)c2)c1,1.42
23,CCc1ccc(OCC(=O)Nc2sc3c(c2C(N)=O)CCCC3)cc1,1.27
24,COc1cc(SC#N)ccc1N/C=C1/C(=O)NC(=O)N(c2ccccc2)C1=O,-6.7
